# In PubChem BioAssay AID485294 (National Center for Advancing Translational Sciences (NCATS), 2010):
# The campaign covered roughly 370,000 compounds. About 150 (0.041%) were called active. Inconclusive results, whose numbers are uncertain, are shown with a selection of clear calls. Calls come from the whole dose curve; as a rule, active = well fitted inhibition curve with a large enough effect; inconclusive = small, poorly fitted or top-dose-only effect; inactive = flat fitted curve, though single readings scatter. Potencies of inconclusive entries are left out as doubtful fits.
# Biological target: Beta-lactamase (Escherichia coli (strain K12)) (UniProt P00811)
# Assay: qHTS Inhibitors of AmpC Beta-Lactamase (assay with detergent); note: nearly all actives have a fitted effect of over 25% in size
# Details: AmpC hydrolysis of nitrocefin, absorbance 480 nm, 0.01% Triton; series mostly up to 114 µM
# How it was run: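 AmpC (5.3 nM in the dispensed reagent) in 20 mM phosphate pH 7.0 with 0.01% (detergent screen) or 0.0001% Triton X-100 was preincubated with compounds for 15 min at room temperature. Nitrocefin was then added from an 800 uM solution, and hydrolysis was followed at 480 nm.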
# Potency is the fitted concentration of half-maximal effect; tags give direction and shape of the fitted curve.
# Sequence of UniProt P00811 (P00811 whole entry, looked up): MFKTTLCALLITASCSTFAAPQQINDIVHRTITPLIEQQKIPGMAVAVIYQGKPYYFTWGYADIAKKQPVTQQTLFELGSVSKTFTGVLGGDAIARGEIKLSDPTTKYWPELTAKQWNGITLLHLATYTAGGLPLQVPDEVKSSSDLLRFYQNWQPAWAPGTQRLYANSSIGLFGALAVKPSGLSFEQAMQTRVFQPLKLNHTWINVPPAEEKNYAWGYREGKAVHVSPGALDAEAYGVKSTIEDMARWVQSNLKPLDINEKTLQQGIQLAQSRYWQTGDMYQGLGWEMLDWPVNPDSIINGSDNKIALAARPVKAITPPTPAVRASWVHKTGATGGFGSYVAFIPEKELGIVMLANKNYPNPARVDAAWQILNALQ
row,Compound,Potency
1,CNc1c(NS(=O)(=O)c2cc(NC(C)=O)ccc2C)c(=O)oc2ccccc12,"inconclusive [inhibitor, full curve]"
2,O=C(NC1CCCc2ccccc21)C1CCCO1 (stereo not drawn),"inconclusive [inhibitor, full curve, poor fit]"
3,O=C(CSc1ccccn1)Nc1ccc(Br)cn1,inactive
4,CCOC(=O)CCCCC(=O)c1[nH]c(=O)[nH]c1CSc1nc(C)cc(=O)[nH]1,"inconclusive [inhibitor, single point]"
5,Cc1c(C(=O)NC2CCN(Cc3ccccc3)C2)oc2c(Cl)cccc12 (stereo not drawn),inactive
6,Cc1cccc(N2N=C(C(=O)Nc3ccc(Cl)c(S(=O)(=O)N4CCOCC4)c3)CCC2=O)c1,inactive
7,c1ccc(CSc2nnc3ccc(-c4ccncc4)nn23)cc1,"inconclusive [inhibitor, full curve]"
8,N#CCSc1n[nH]c2nc3c(c(=O)n12)C1(CCCC1)Cc1ccccc1-3,"inconclusive [inhibitor, full curve, poor fit]"
9,CCc1ccc2oc(C(=O)Nc3nc(-c4ccccc4)ns3)c(C)c2c1,inactive
10,COc1ccc(C2Nc3ccccc3C(=O)N2Cc2ccccc2)cc1 (stereo not drawn),inactive
11,Cc1occc1C(=O)NNC(=S)Nc1ccccc1,inactive
12,CCO/N=C(\C)c1c(O)c2ccccc2n(C)c1=O,"inconclusive [inhibitor, partial curve, poor fit]"
13,Cc1ccc(S(=O)(=O)N2CCN(CC(=O)N/N=C/c3ccc(C)o3)CC2)cc1,"inconclusive [inhibitor, partial curve]"
14,COC(=O)c1cccc(C(=O)Nc2ccc(F)cc2)n1,"inconclusive [inhibitor, full curve, poor fit]"
15,COc1ccc(NC(=O)c2coc3ccccc23)cc1OC,"inconclusive [inhibitor, full curve]"
16,O=C(O)c1ccnc(C(=O)O)c1,inactive
17,CN(C)C(CNC(=S)Nc1cccc(Cl)c1)c1ccccc1 (stereo not drawn),"inconclusive [inhibitor, single point]"
18,Cc1ccc2cc(C(c3nnnn3C(C)(C)C)N3CCCCCC3)c(=O)[nH]c2c1 (stereo not drawn),inactive
19,COc1ccc(C2=NN(C(=O)CCC(=O)O)C(c3ccc(F)cc3)C2)cc1 (stereo not drawn),"inconclusive [inhibitor, full curve, poor fit]"
20,Cc1ccc(Cn2c(=O)c3cccnc3n(Cc3ccc(F)cc3)c2=O)cc1,inactive
21,Nc1ncnc2c1ncn2C1OC(CO)C(O)C1N (stereo not drawn),"inconclusive [inhibitor, full curve, poor fit]"
22,COc1ccc(NC(=S)N(CCN2CCOCC2)C2CCN(C(C)=O)CC2)cc1Cl,inactive
23,COc1ccc(-c2nc(SC(C)C(=O)Nc3ccc(NC(C)=O)cc3)n[nH]2)cc1 (stereo not drawn),"inconclusive [inhibitor, full curve, poor fit]"

row,Compound,Potency
1,NC(=O)Cn1c(=O)n(CCCC(=O)NC2CCN(Cc3ccccc3)CC2)c(=O)c2ccccc21,"inconclusive [inhibitor, full curve, poor fit]"
2,O=C(O)CCC(=O)OCC1CCCCC1,"inconclusive [inhibitor, full curve, poor fit]"
3,Cc1cccc(NC(=O)NCC(F)(F)F)n1,"inconclusive [inhibitor, full curve, poor fit]"
4,O=C(NCc1ccccc1CN1CCCC1)c1cccc(N2CCCC2=O)c1,inactive
5,CCCN(CC1CCCO1)C(=O)CCc1nnc(CCc2ccc(OC)cc2)o1 (stereo not drawn),"inconclusive [inhibitor, full curve, poor fit]"
6,CN(Cc1ccc(F)cc1)C(=O)c1ccc(NS(=O)(=O)c2ccccc2)cc1,"inconclusive [inhibitor, partial curve]"
7,COc1ccc(-c2csc(NC(=O)Cc3cccc4ccccc34)c2C(=O)O)cc1,"inconclusive [inhibitor, full curve]"
8,O=C(CSc1ncn[nH]1)NCCOc1ccccc1,"inconclusive [inhibitor, full curve, poor fit]"
9,CCc1c(C)nc2cc(-c3ccccc3)[nH]n2c1=O,"inconclusive [inhibitor, partial curve, poor fit]"
10,COc1ccc(CNC(=O)CN2CCN(C(c3ccccc3)c3ccccc3)CC2)cc1,"inconclusive [inhibitor, single point]"
11,CCOC(=O)CNC(=O)CSc1ccc2nnc(-c3ccc(F)cc3)n2n1,"inconclusive [inhibitor, full curve, poor fit]"
12,Cc1cc(C)nc(NS(=O)(=O)c2ccc(NC(=S)NC(=O)C3CCCC3)cc2)n1,"inconclusive [inhibitor, single point]"
13,Cc1ccc(N2CCN(C3=NC(=O)/C(=C\c4cn[nH]c4-c4ccccc4)S3)CC2)cc1,inactive
14,S=C(Nc1ccc(Oc2ccccc2)cc1)N1CCOCC1,inactive
15,CC(=O)NC(Cc1ccccc1)C(=O)NC1CCN(C(=O)c2ccc([N+](=O)[O-])cc2)CC1 (stereo not drawn),"inconclusive [inhibitor, full curve]"
16,Cc1ccc(C(=O)CCC2CCCC2=O)cc1 (stereo not drawn),"inconclusive [inhibitor, full curve, poor fit]"
17,COc1ccc(/C=C2\SC(=N)N(c3nccs3)C2=O)cc1OC,"inconclusive [inhibitor, single point]"
18,Cc1ccc(SCc2cn3cc(Cl)ccc3n2)cc1,inactive
19,CCCCN(C(=O)CCC(=O)Nc1cc(C)on1)C(C(=O)NC1CCCC1)c1ccccc1OCC (stereo not drawn),inactive
20,CC(C)C1NC2(C(=O)c3ccccc3C2=O)C2C(=O)N(c3ccc(F)cc3)C(=O)C12 (stereo not drawn),inactive
21,O=C(COC(=O)C1(c2ccc(F)cc2)CCCC1)N1CCc2ccccc21,"inconclusive [inhibitor, partial curve, poor fit]"
22,O=C(N/N=C/C1C(c2ccccc2)C1(Cl)Cl)c1cccc(Cl)c1 (stereo not drawn),"inconclusive [inhibitor, single point]"
23,COc1ccc(C(=O)NN=C2CCCC2)cc1,"inconclusive [inhibitor, full curve, poor fit]"

row,Compound,Potency
1,CC(=O)Oc1ccc(C(=O)Nc2cccc(C(=O)c3cccc(NC(=O)c4ccc(OC(C)=O)cc4)c3)c2)cc1,"inconclusive [inhibitor, full curve, poor fit]"
2,COc1cccc(-c2cccc(NC(=O)C3CCN(Cc4cccc(C)n4)CC3)c2)c1,inactive
3,CC(C)[C@@H](C(=O)N[C@@H](C(=O)O)c1ccccc1)N1C(=O)N2CCc3c([nH]c4ccccc34)[C@@]2(C)C1=O,"inconclusive [inhibitor, partial curve]"
4,Cc1ccc(NC(=O)[C@H](Cc2ccccc2)N2Cc3ccccc3C2=O)cc1,"inconclusive [inhibitor, single point]"
5,Cc1ccccc1C(=O)N1CCN(C(c2ccccc2)c2ccccc2)CC1,inactive
6,Cn1cc(C(=O)c2ccc(Cl)cc2Cl)cc1C(=O)O,"inconclusive [inhibitor, full curve]"
7,Cc1ccnc(SCCn2c(N3CC(C)CC(C)C3)nc3c2c(=O)n(C)c(=O)n3C)n1 (stereo not drawn),"inconclusive [inhibitor, partial curve, poor fit]"
8,Cc1cc(S(=O)(=O)NCC(c2ccc(F)cc2)N2CCN(C)CC2)ccc1F (stereo not drawn),"inconclusive [inhibitor, full curve, poor fit]"
9,Cc1cc(C)n(-c2nc3cc(Cl)c(Cl)cc3nc2Nc2c(C)cccc2C)n1,inactive
10,COc1ccc(/C=N/NC(=O)c2nnn(-c3nonc3N)c2-c2cccc(OC)c2)cc1,"inconclusive [inhibitor, full curve, poor fit]"
11,Cc1nc2ccc(NC(=S)N3CCN(c4ccccn4)CC3)cc2nc1C,"inconclusive [inhibitor, single point]"
12,O=C(CN1C(=O)/C(=C/c2ccccc2)SC1=S)NNC(=O)c1ccccc1O,"inconclusive [inhibitor, full curve, poor fit]"
13,COc1ccc(CNC(=O)C(=O)NCC(c2cccnc2)N2CCN(c3ccccc3F)CC2)cc1 (stereo not drawn),inactive
14,CC(=O)Nc1c(I)c(C(=O)N[C@H]2C(O)O[C@H](CO)[C@@H](O)[C@@H]2O)c(I)c(N(C)C(C)=O)c1I (stereo partly drawn),"inconclusive [inhibitor, full curve, poor fit]"
15,CC1CN(C)C(C)c2c1oc1ccc(N)cc21 (stereo not drawn),"inconclusive [inhibitor, full curve, poor fit]"
16,Cc1ccc(C)c(NC2=NS(=O)(=O)c3ccccc32)c1,"inconclusive [inhibitor, full curve, poor fit]"
17,COc1ccc(NC(=O)CSc2nc(-c3ccc(C)cc3)cc(C(F)(F)F)c2C#N)cc1,"inconclusive [inhibitor, full curve]"
18,CCOC(=O)C(=Nc1ccc(Cl)cc1)NO,inactive
19,CCN(c1ccccc1)S(=O)(=O)c1nnc(NC(=O)COc2ccccc2F)s1,inactive
20,COc1c(Br)cc(Br)cc1/C=N/n1c(C)nnc1C,"inconclusive [inhibitor, full curve, poor fit]"
21,CCOC(=O)c1c(C)n(C)c2ccc(OCC(O)CN3CCC(C)CC3)cc12 (stereo not drawn),"inconclusive [inhibitor, full curve, poor fit]"
22,CNC(=O)Nc1cccc(C(F)(F)F)c1,inactive
